Data: PubChem BioAssay AID1159614 (National Center for Advancing Translational Sciences (NCATS), 2016)
Screen size: about 45,000 compounds; about 65 (0.1%) were called active. Calls come from the whole dose curve; as a rule, active = well fitted activation curve with a large enough effect; inconclusive = small, poorly fitted or top-dose-only effect; inactive = no such curve, though single readings can be large or run the other way. The list shows a part of the results.

biological target: Galactocerebrosidase (Homo sapiens) (UniProt P54803); assay: A Novel Cell-Based Assay to Identify Small Molecules for B -Galactocerebrosidase; conditions: 145M-Twi-hGALC-G270D cells (Twitcher mouse brain line with human GALC G270D), HMU-beta-Gal fluorescence, 48 h; series mostly up to 57.5 µM; activation: at the top concentration; note: 0% is about no effect; nearly all actives have a fitted effect of over 65% in size
Outline: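 Live 145M-Twi cells (Twitcher mouse brain-derived, GALC-null) stably expressing human GALC-G270D, with a wild-type GALC line, were compound-treated. Residual GALC activity was then read as fluorescence from 0.1 mM final HMU-β-gal at pH 5.2; higher signal means activation.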

Sequence of UniProt P54803 (P54803 whole entry, looked up): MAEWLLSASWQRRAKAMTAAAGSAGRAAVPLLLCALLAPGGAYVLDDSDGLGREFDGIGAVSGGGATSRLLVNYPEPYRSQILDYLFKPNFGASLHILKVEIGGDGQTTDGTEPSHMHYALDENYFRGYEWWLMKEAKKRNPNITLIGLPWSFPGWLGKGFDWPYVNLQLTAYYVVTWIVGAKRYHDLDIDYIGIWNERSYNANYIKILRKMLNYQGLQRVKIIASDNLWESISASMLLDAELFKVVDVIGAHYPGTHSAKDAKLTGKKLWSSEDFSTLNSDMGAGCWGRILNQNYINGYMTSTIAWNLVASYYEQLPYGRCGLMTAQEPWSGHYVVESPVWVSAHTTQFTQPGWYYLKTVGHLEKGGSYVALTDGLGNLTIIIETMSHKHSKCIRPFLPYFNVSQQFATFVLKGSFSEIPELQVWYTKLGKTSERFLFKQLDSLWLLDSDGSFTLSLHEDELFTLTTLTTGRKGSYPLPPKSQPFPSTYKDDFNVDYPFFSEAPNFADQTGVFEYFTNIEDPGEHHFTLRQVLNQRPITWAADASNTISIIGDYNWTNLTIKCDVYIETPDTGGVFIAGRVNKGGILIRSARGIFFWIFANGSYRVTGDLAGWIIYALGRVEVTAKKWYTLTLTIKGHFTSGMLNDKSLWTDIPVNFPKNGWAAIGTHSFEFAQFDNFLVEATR

activation, inactive:
COc1ccc(OC)c(-c2noc(N3CCN(c4cccc(C)c4C)CC3)n2)c1 -2.11%
CC(=O)c1ccc(NC(=O)Cn2nc(C(F)(F)F)c3c2CCCC3)cc1 -14.3%
COc1cccc(CN(C(=O)c2cccc(C)c2)C2CCS(=O)(=O)C2)c1 (stereo not given) -18.3%
Cc1ccc2oc(C(=O)Nc3sc4c(c3C(=O)NCc3cccnc3)CCCC4)cc(=O)c2c1 -14.5%
CC(C)CC(=O)Nc1nnc(S(=O)(=O)N2CCc3ccccc32)s1 7.16%
Cc1ccc(-n2nc3c(=O)n(CCCC(=O)NC(C)c4ccccc4)nc(C)c3c2C)cc1 (stereo not given) -4.61%
COc1ccccc1Cn1cc(C(=O)c2ccc(C)cc2)c(=O)c2cc(F)cc(F)c21 -16.1%
CCCN(CCC)C(=O)Cn1c(=O)n(Cc2ccc(C(=O)NCCc3ccc(Cl)cc3)cc2)c(=O)c2ccccc21 5.18%
COc1ccc(-c2nc(SCC(=O)Nc3ccc4c(c3)OCCO4)c(-c3ccccc3)[nH]2)cc1 -16.8%
CCc1ccc(NC(=O)Cn2c(=O)n(-c3cc(C)cc(C)c3)c(=O)c3oc4ccccc4c32)cc1 -24.5%
Cc1ccc(CSc2oc(-c3cccs3)nc2S(=O)(=O)c2ccc(C)cc2)cc1 -19.6%
COC(=O)CC1Oc2ccc(C)cc2-n2cc(-c3ccc(C)cc3)nc21 (stereo not given) -6.21%
COC(=O)c1ccccc1NC(=O)C1=C(C)C(=O)OC12CCC(C)CC2 (stereo not given) -2.7%
CCc1ccccc1NC(=O)c1ccc2c(c1)nnn2C1CCCC1 6.96%
CCCNC(=O)c1ccc(Cn2c(=O)c3cccn3c3cccnc32)cc1 -4.17%
CCOc1ccccc1NC(=O)CN1C(=O)COc2ccc(S(=O)(=O)NC3CCCC3)cc21 -2.89%
Cc1ccc(CNC(=O)Cc2ccc(NC(=O)N3CCSc4ncccc43)cc2)cc1 -16.9%
O=C1CCCc2cc(S(=O)(=O)NCC3CCC(C(=O)NCc4ccc(F)cc4)CC3)ccc2N1 (stereo not given) 3.92%
CCOC(=O)c1c(C)c(-c2ccccc2)n(CC(=O)Nc2cc(C)cc(C)c2)c1C -11.6%
Cc1ccc(N2CCN(S(=O)(=O)c3ccc(Cl)c4ccccc34)CC2)c(C)c1 -13.1%
O=C(Nc1cccc(C(F)(F)F)c1)c1cccc(C(=O)Nc2cccc(C(F)(F)F)c2)c1 -0.592%
COCCCNC(=O)CCCn1c(=O)c2cccn2c2ccccc21 -7.92%
COc1ccccc1CNC(=O)CCC1N=C2c3ccccc3N=C(SCc3ccc(Cl)cc3)N2C1=O (stereo not given) -20%
O=C(Cn1ncc2c(=O)oc3ccccc3c21)N1CCN(c2ccc(Cl)cc2)CC1 -17.9%
COc1cccc(CSc2nc(-c3ccccc3F)nc3c2Cc2c(CO)cnc(C)c2O3)c1 -10.8%
COc1ccc(-n2nc3c(N4CCC(C(=O)NCCc5ccccc5)CC4)nnc(C)c3c2C)cc1 -7.86%
O=C(CSc1nnc(-c2cccc(F)c2)c(-c2cccc(F)c2)n1)NC1CCCCC1 -6.53%
COc1cc(Cl)c(C)cc1NC(=O)c1cnn(-c2ccc(F)cc2F)c1C1CCN(C(=O)OC(C)(C)C)CC1 -9.07%
COc1ccc2cc(CNc3ccc(C)cc3)c(=O)n(CC(=O)Nc3cccc(Cl)c3C)c2c1 -21.7%
CC(C)(C)c1ccc(C(=O)N(Cc2ccc(F)cc2)Cc2ccco2)cc1 -11.4%
Cc1ccc(-c2nnc(Nc3ccccc3)c3ccccc23)cc1S(=O)(=O)N1CCN(C)CC1 -13.4%
CCOC(=O)c1c(NC(=O)COc2ccccc2Br)sc2c1CCCCC2 -12.8%
CCN(CC)S(=O)(=O)c1nnc(NC(=O)c2ccc(Br)cc2)s1 -16.5%
COc1ccc(-c2nc(CSc3nnc(C)n4c3cc3oc(C)cc34)c(C)o2)cc1OC -11.7%
O=C(c1cccs1)N(Cc1cccnc1)c1nc2c(F)cc(F)cc2s1 -2.2%
CCN(CCCNC(=O)c1ccc(Sc2ccc(Cl)cc2)c(NC(C)=O)c1)c1ccccc1 -2.33%
CCn1cc2nc(SCc3ccc(F)cc3)n(CCc3ccccc3)c(=O)c2n1 -11.3%
COc1ccc(CCNC(=O)C2CCCN(S(=O)(=O)c3ccc4c(c3)oc(=O)n4C)C2)cc1OC (stereo not given) -2.38%
O=S(=O)(c1ccccc1)c1nc(-c2cccc(Cl)c2)oc1N1CCOCC1 -10.3%
Cc1cc(NC(=O)Cn2c(=O)oc3cc(S(=O)(=O)N4CCCC4)ccc32)ccc1Br -24.1%
CCC(=O)Nc1ccccc1-c1nc2ccccc2n(C(CC)C(=O)Nc2cccc(Cl)c2)c1=O (stereo not given) -9.64%
Cc1cc(C)c(Cn2c(=O)n(CCCCC(=O)NCc3ccccc3Cl)c(=O)c3ccccc32)c(C)c1 -11.4%
COc1ccc(NC(=O)C2=C(C)Nc3ncnn3C2c2ccc[nH]2)cc1 (stereo not given) -13.1%
CCOC(=O)c1c(C)sc(-c2c(-c3cccc(Cl)c3)[nH]c3c2c(=O)n(C)c(=O)n3C)c1O -13.6%
Cc1ccc(CNC(=O)CCc2cn(Cc3ccc(C)cc3)c3ccccc23)cc1 -11.7%
Cc1ccc2c(Br)cc(Br)c(O)c2n1 -8.46%
CCOc1ccc(-c2cc3nc(C4CCN(C(=O)OC(C)(C)C)CC4)c(C(=O)Nc4c(C)cccc4C)cn3n2)cc1 -10.7%
C=Cc1ccc(Cn2ccn(-c3ccc(F)c(F)c3)c(=O)c2=O)cc1 -18.2%
COc1ccc(CCN2C(=O)c3[nH]nc(-c4ccccc4O)c3C2c2ccccc2)cc1 (stereo not given) -5.91%
CCc1ccccc1N(C)S(=O)(=O)c1ccc2c(c1)C(C)(C)C(=O)N2C -4.77%
Cc1c(C(=O)N(C)C)sc2c1c(=O)n(-c1ccc(F)cc1)c(=O)n2Cc1ccccc1C#N -9.68%
COc1cccc(NC(=O)c2csnn2)c1 -13.9%
Fc1ccc2c(c1)-c1c(cnc3cc(-c4ccc(Cl)cc4)nn13)CO2 1.87%
CC(=O)N1CCc2cc(CNC(=O)Nc3ccc(Br)c(C)c3)ccc21 -8.09%
CC(=O)Nc1ccc(NC(=O)C2CCN(c3cnccn3)CC2)cc1 -6.58%
N#Cc1ccc(C(=O)Nc2cc3nn(-c4ccccc4)nc3cc2Cl)c(F)c1 -3.82%
CCOC(=O)C1CCN(S(=O)(=O)c2cc(Br)cc3c2N(C(=O)CC)CC3)CC1 -0.248%
Cc1ccc(Cl)cc1NC(=O)c1cnc(N2CCCCC2)c2ccccc12 -3.11%
O=C(Cn1c(SCC(=O)Nc2ccc(F)cc2)nc2ccccc21)NCc1ccc(F)cc1 -6.82%
COc1ccc(S(=O)(=O)N(CC(=O)Nc2ccccc2Br)Cc2ccccc2)cc1 -15.7%
CC(C)OCCCn1c(=O)c2ccccc2n2c(-c3ccc(F)cc3)nnc12 -12.2%
CCCCCCCC/C=C/C(=O)O -12.7%
Cn1c(=NC(=O)c2ccc(S(=O)(=O)N3CCCc4ccccc43)cc2)sc2cc(F)ccc21 10.8%
Cc1ccc(S(=O)(=O)NC(=O)NC2CCCC2)cc1 -13.2%
Cc1cccc(C(=O)Nc2c(-c3ccccc3)nc3cc(C)ccn23)c1 -4.23%
COc1ccc(NC(=O)C(=O)NCCc2csc(-c3ccc(Cl)cc3)n2)cc1OC -19.9%
COc1ccc(-c2nc3scc(CCNS(=O)(=O)c4ccc(C)cc4)n3n2)cc1 -4.73%
COc1ccccc1NC(=O)C(=O)NCC(c1ccc2c(c1)OCO2)N1CCN(C)CC1 (stereo not given) -15%
CCN1CCN(c2ncc3c(n2)CCN(Cc2cc(F)cc(F)c2)C3)CC1 -1.37%
CCOc1cc2sc(N3CCC(C(=O)Nc4ccc(C)cc4C)CC3)nc2cc1Br -17.4%
CN(C)c1ccc(C(CNC(=O)c2ccccc2)N2CCc3ccccc32)cc1 (stereo not given) -10.9%
CCc1ccc(CN(Cc2ccco2)c2cnc(S(C)(=O)=O)nc2C(=O)Nc2cccc(C)c2)cc1 -7.47%
COC(=O)c1ccc(NC(=O)CSc2nc(=O)[nH]c3c2CCCC3)cc1 -1.07%
CCOC(=O)COc1ccc([N+](=O)[O-])cc1-c1ccnc2cc(-c3ccc(Cl)cc3)nn12 -0.949%
Cc1ccccc1C(=O)Nc1sc2c(c1C(=O)NCc1ccco1)CCC(C(C)(C)C)C2 (stereo not given) -12.8%
COCCCNC(=O)c1oc2c(c1C)-c1nn(Cc3ccccc3Cl)cc1CC2 -5.9%
CNC(=O)C1CCC(Cn2c(=O)c3sccc3n(CC(=O)NCc3ccccc3)c2=O)CC1 (stereo not given) -10%
Cc1ccc(SCCNC(=O)CN(c2ccccc2)S(=O)(=O)N(C)C)cc1 -9.3%
Cc1cccc(-c2noc(-c3ccccc3OCC(=O)Nc3ccc([N+](=O)[O-])cc3)n2)c1 -3.38%
CC(C)CC(=O)Nc1cccc(-c2nc3ccccc3[nH]2)c1 -9.27%
CCC1=Nc2cc(C(=O)NCCCOC)ccc2Sc2ccc(Br)cc21 -1.25%
COc1ccccc1CNc1nc(-c2ccco2)nn1S(=O)(=O)c1ccc2ccccc2c1 -1.03%
CCc1cnc2c(c1SCC(=O)c1ccccc1)c(=O)n(C)c(=O)n2C -5.57%
CCC(=O)N1CCc2cc(Br)cc(S(=O)(=O)N3CCCC(C(=O)Nc4ccc(C(C)C)cc4)C3)c21 (stereo not given) 5.62%
CCOc1cc(C(=O)OCc2cc(=O)n3nc(CC)sc3n2)cc(OCC)c1OCC -16.5%
CC1CCC(C(=O)NC(C(=O)OCC(=O)c2ccccc2)C(C)C)CC1 (stereo not given) -16.2%
CCN1CCc2nc3sc(C(=O)Nc4cccc(Cl)c4C)c(N)c3cc2C1 -10.9%
COc1ccc(-c2ccc(NS(=O)(=O)c3ccc(OC)c(OC)c3)cc2)nn1 -17%
Cc1scc2c1N(C(=O)CN1CCN(C)CC1)c1ccccc1NC2=O -11.4%
CCOc1sc2nc(C)n(CC(=O)Nc3cccc(C)c3)c(=O)c2c1C -18.9%
CCCCC(=O)N(c1ccc2oc(C)c(C(C)=O)c2c1)S(=O)(=O)c1ccc(F)cc1C -34.3%
COc1ccc(OCc2nc3ccccc3n2Cc2ccccc2Cl)cc1 -5.35%
COC(=O)c1ccccc1NC(=O)c1c(C)oc2ncn(C)c(=O)c12 0.027%
Cc1ccc(S(=O)(=O)NC2(C(F)(F)F)C(=O)Nc3c2c(=O)[nH]c(=O)n3-c2ccccc2)cc1 (stereo not given) -0.252%
Cc1ccc(CNS(=O)(=O)c2cc3[nH]c(=O)c(=O)[nH]c3cc2C)cc1 -4.66%
